No constants are given. Whether binding was seen depends on the method and setting. In cells and extracts the contact can be indirect. Some results given as binding are weak or reduced against the parent protein; the word gives no strength. For some assays here: Where a sequence is shown, tags or fusion partners need not be part of it.

By UniProt entry, the sequences of proteins in these tests, tags left out. Where a name states a change or a piece, a line headed by the entry shows the natural chain unless it says otherwise. Chains listed by the source or under a name are the forms on record and can include a tag or linker. Residues count along the entry.
UniProt Q7Z2W4: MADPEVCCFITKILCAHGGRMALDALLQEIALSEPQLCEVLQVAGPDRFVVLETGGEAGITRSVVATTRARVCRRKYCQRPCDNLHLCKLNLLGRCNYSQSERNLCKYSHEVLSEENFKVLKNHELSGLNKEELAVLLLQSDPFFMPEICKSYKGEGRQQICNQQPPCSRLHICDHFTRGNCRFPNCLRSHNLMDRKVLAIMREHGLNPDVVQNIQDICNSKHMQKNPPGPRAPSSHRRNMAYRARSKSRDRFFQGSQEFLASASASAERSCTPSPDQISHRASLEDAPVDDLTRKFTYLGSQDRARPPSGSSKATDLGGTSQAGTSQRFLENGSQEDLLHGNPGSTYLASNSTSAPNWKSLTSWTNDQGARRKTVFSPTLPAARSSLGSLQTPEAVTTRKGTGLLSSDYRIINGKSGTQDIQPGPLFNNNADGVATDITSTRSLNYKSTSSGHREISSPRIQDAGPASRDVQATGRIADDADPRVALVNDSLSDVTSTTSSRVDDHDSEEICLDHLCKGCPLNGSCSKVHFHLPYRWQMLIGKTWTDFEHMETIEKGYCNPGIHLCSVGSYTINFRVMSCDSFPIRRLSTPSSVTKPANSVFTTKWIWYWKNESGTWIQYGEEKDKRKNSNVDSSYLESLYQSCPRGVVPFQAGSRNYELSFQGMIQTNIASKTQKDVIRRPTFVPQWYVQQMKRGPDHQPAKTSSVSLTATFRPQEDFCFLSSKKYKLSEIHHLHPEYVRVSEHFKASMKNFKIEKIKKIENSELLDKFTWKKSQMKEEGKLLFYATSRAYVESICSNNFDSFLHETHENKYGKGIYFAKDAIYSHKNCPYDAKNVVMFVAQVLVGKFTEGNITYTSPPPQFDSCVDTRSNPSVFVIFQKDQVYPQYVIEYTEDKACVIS
HA-ZAP 1–256: residues 1-256 of Q7Z2W4
V5-TEV-ZAP-S (Q7Z2W4-2, form named): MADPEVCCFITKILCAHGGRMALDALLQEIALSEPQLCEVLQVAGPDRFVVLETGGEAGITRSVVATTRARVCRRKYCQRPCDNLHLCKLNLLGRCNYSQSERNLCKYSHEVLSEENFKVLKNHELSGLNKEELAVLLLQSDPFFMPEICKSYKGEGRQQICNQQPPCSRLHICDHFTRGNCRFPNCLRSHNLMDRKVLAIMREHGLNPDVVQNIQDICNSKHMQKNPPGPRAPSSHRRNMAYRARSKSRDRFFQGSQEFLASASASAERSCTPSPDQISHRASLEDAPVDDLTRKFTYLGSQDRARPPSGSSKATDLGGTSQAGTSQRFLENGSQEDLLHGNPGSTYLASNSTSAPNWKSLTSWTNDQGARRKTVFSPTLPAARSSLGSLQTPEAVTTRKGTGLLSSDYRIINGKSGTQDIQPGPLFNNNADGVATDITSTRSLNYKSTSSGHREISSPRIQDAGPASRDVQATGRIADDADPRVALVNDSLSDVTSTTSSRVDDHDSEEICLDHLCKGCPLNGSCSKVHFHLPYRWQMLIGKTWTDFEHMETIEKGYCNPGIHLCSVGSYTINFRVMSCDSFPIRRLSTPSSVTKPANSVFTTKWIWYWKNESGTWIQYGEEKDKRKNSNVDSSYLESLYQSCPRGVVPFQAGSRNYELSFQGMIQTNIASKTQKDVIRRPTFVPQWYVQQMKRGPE
UniProt Q9UN81: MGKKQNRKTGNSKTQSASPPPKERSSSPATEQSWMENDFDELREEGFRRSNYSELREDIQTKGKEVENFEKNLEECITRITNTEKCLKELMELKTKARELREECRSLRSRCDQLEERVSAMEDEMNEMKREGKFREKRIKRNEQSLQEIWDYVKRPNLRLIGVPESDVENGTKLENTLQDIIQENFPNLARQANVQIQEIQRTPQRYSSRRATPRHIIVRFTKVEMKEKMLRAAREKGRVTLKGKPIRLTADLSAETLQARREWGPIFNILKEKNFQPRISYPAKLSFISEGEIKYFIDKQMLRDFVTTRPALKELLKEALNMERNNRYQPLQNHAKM
UniProt P50990: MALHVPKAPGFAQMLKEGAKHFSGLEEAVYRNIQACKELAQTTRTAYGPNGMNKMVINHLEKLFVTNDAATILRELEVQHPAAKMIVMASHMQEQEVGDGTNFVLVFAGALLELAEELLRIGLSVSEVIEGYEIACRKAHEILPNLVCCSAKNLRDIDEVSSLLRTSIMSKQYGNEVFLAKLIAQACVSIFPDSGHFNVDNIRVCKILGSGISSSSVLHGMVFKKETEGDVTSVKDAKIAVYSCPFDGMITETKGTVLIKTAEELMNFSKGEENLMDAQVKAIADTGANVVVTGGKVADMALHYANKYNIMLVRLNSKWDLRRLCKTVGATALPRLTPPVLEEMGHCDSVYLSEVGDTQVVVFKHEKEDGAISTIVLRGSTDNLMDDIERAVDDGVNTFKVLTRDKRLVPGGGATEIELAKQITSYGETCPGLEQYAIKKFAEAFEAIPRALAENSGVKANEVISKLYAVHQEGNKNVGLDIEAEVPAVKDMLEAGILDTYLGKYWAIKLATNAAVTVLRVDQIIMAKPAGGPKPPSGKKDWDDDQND
UniProt Q92526: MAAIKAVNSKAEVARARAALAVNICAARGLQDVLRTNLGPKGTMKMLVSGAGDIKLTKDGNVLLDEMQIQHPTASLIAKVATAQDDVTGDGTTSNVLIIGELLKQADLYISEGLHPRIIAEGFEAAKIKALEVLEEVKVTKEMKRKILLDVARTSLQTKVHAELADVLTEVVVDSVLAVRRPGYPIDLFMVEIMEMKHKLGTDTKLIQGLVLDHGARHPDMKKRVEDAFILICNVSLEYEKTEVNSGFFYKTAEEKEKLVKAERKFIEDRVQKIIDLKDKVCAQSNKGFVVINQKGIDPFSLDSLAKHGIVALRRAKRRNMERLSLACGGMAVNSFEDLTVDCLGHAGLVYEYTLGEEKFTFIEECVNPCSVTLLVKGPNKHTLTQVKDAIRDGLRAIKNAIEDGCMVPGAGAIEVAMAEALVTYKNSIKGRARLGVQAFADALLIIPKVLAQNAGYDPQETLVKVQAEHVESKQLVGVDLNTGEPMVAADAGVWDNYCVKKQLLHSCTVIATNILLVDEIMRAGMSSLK
UniProt Q9NQT4: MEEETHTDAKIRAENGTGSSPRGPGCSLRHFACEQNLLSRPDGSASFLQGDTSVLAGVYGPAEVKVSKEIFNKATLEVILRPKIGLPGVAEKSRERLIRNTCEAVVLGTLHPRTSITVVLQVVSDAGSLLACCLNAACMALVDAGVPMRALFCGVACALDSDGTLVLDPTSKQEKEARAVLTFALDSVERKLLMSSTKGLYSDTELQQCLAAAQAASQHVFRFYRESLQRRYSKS
UniProt P09874: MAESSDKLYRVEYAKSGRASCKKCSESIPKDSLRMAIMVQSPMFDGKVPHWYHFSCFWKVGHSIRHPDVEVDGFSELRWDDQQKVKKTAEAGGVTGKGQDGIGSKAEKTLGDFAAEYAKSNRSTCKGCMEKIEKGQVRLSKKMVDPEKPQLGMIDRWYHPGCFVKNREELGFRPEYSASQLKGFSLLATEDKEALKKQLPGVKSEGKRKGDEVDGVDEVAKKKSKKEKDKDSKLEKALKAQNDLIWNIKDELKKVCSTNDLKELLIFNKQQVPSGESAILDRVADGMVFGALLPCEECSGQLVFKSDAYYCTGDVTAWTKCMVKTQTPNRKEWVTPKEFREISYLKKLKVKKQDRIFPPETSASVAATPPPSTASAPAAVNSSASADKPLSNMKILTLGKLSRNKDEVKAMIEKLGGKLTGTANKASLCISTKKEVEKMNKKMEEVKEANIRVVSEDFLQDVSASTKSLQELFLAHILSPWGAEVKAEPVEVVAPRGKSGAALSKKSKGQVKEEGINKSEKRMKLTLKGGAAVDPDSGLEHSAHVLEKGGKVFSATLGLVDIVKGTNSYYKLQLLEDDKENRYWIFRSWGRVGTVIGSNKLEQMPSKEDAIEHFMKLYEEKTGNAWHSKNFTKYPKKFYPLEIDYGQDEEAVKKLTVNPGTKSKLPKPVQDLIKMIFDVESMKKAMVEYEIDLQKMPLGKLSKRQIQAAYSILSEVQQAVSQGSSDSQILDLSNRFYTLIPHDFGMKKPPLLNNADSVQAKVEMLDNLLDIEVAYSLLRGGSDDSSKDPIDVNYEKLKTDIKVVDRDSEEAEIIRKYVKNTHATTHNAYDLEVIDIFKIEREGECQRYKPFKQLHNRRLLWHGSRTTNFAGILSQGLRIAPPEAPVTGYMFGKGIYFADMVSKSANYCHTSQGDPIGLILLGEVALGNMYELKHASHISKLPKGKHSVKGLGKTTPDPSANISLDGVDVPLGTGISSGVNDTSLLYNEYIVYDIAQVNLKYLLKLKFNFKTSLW
UniProt Q14258: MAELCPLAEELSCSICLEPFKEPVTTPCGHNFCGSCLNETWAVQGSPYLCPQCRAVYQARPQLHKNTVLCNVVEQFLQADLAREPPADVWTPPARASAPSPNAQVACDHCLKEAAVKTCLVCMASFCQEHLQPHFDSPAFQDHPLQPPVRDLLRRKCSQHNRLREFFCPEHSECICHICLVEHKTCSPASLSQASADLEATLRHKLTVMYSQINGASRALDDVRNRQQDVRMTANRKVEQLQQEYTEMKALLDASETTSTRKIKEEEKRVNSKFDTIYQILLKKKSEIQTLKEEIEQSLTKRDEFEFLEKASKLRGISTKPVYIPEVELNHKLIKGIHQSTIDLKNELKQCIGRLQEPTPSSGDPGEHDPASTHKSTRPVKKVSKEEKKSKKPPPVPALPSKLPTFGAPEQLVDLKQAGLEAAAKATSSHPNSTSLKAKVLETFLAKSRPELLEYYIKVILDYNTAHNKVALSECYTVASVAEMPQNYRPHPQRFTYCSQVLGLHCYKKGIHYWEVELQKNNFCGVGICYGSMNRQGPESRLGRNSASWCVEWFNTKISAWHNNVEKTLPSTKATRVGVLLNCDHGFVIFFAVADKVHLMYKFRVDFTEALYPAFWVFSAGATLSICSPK
UniProt Q96AZ6: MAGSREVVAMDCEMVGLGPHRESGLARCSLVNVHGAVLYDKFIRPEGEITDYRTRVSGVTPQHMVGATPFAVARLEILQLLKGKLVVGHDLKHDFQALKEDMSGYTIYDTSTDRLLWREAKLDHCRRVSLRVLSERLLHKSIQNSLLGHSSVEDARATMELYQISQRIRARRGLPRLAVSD
UniProt P30153: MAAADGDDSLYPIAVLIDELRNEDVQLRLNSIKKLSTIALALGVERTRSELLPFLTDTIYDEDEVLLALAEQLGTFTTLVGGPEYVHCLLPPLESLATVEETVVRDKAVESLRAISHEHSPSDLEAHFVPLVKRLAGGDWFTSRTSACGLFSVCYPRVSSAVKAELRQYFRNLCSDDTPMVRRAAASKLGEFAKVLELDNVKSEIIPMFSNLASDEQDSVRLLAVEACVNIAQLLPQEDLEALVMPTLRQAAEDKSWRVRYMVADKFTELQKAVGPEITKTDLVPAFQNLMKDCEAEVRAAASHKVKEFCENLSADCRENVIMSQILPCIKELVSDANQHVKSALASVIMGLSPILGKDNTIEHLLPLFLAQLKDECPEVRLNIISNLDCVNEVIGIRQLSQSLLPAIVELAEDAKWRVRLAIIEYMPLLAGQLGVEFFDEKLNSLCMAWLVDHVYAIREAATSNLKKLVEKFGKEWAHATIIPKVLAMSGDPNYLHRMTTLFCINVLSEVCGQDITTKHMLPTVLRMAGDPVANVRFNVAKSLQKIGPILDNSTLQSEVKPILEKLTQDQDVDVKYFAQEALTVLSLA

The target of experiment [1] is ZAP-L-FL (FLAG-tagged ZAP-L) (human) (UniProt Q7Z2W4). In words: co-IP; ZAP-L-FL cotransfected with tagged test proteins in 293T (or endogenous MOV10); IP on α-FLAG agarose in the presence or absence of RNase (legend: 50 μg/ml; methods: 25 μg/ml RNase HC and 25 μg/ml RNaseA); Western blot. In general terms: In western blotting, separated proteins are transferred to a membrane and probed.

The target in experiment [2] is L1-RP ORF1p with a tandem FLAG-HA tag fused to its C-terminus, expressed from pc-L1-1FH (human) (UniProt Q9UN81). In words: co-IP; as a1, IP reaction in the presence of 50 μg/ml RNase.
For experiment [3] the target is unchanged. Nature of the experiment: co-IP; pc-L1-1FH (ORF1p-FLAG-HA) expressed in 293T cells with tagged test proteins or with endogenous ZAP; IP of L1 RNP complexes on α-FLAG agarose without RNase; Western blot.
In experiment [4] the target is T1, FLAG-tagged MOV10 (human) (UniProt Q9HCE1).
T1 sequence: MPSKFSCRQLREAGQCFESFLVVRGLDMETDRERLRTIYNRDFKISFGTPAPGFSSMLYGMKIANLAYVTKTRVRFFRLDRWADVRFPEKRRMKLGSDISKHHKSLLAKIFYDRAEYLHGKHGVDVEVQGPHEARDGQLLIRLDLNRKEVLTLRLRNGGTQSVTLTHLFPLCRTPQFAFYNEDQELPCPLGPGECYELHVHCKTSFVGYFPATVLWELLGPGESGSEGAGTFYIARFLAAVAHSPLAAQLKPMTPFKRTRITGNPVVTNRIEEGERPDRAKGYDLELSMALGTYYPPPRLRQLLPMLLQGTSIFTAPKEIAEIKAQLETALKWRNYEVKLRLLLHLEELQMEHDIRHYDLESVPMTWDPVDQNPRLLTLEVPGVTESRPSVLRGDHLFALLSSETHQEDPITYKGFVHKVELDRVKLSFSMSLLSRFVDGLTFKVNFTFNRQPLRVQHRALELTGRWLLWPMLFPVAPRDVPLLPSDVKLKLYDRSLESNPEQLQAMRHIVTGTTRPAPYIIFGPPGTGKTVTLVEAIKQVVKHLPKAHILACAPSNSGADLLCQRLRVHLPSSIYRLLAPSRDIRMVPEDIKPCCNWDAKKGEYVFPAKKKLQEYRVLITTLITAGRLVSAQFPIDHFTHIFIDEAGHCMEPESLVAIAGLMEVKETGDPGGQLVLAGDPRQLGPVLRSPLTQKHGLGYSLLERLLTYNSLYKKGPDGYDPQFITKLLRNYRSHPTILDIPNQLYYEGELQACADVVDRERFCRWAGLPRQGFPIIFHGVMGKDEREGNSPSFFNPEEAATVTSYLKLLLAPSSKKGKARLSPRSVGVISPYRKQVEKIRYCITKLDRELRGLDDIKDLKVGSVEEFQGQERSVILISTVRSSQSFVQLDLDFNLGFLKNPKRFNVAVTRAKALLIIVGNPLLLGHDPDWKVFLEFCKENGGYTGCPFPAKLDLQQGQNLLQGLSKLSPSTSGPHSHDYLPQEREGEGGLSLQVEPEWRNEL
In words: co-IP; not told for this result (no figure cited); the sentence follows the co-IPs of ZAP and MOV10 of Fig 4C.

For experiment [5], the target named is ZAP-L-FL (FLAG-tagged ZAP-L) (human) (UniProt Q7Z2W4). Nature of the experiment: co-IP; ZAP-L-FL and pc-L1-RP (untagged ORF1p) expressed in 293T cells; IP by the FLAG tag of ZAP-L-FL.
Experiment [6] deals with T1, FLAG-tagged MOV10 (human). In words: co-IP; HA-ZAP-L with FLAG-tagged MOV10; IP on α-FLAG agarose, also in the presence of RNase.

Turning to Myc-USP7 (from UniProt Q93009-1 1-1102), in experiment [1], the binding result is “binds”.

For “USP9X-V5 (pDest51-USP9X-V5) (from UniProt Q93008-3 1-2570)”, the binding result in experiment [1] was “binds”. Take “endogenous full-length ZAP (293T cells) (from UniProt Q7Z2W4-1 1-902)”: the binding result in experiment [2] is on record as “no binding (condition: with RNase)”; in experiment [3], “binds”. As to “V5-tagged CCT8 (from UniProt P50990 1-548)”, the binding entry in experiment [1] is “no binding”. The same measure, in the same setting: to “V5-tagged CCT6B (from UniProt Q92526 1-530)” belongs “no binding”; to “V5-tagged EXOSC5 (from UniProt Q9NQT4 1-235)”, “binds weakly”; to “pCDNA3.1-V5-His full-length PARP1 (from UniProt P09874 1-1014)”, “binds”. The same measure, in the same setting: to “V5-TEV-tagged PPP2CA (from UniProt P67775-1 1-309)” belongs “binds”; to “V5-TEV-tagged TRIM25 (from UniProt Q14258 1-630)”, “binds”. “V5-TEV-ZAP-S (from UniProt Q7Z2W4-2 1-699)”: the binding entry is on record as “no binding (condition: with 50 μg/ml RNase)” in experiment [2] and “binds” in experiment [3]. As to “V5-TEV-ISG20 (from UniProt Q96AZ6 1-181)”, the binding entry in experiment [1] is listed as “binds weakly”. Consider “HA-ZAP 1–256 (from UniProt Q7Z2W4-1 1-256) (domain or fragment)”, for which the binding result in experiment [4] and in experiment [3] was “no binding” in each case. In the case of “V5-TEV-tagged PPP2R1A (from UniProt P30153 1-589)”, in experiment [1], the binding entry is listed as “binds”. For the substance “untagged ORF1p expressed from construct pc-L1-RP (from UniProt Q9UN81 1-338)”, the binding entry in experiment [5] is on record as “binds”. For the substance HA-ZAP-L (from UniProt Q7Z2W4-1 1-902), the binding entry in experiment [2] is reported as “no binding (condition: with RNase)”; in experiment [6], “binds”; in experiment [3] it was “binds”.

The values above are taken from article PMC4441479.
